Reference: the RNAGym collection of RNA variant scans (doi:10.1073/pnas.2313332121)
Variants at the floor of the assay are shown more often than the library holds them.

B1: TPR 5TU (parent)
chain: GGAUCUUCUCGAUCUAACAAAAAAGACAAAUCUGCCACAAAGCUUGAGAGCAUCUUCGGAUGCAGAGGCGGCAGCCUUCGGUGGCGCGAUAGCGCCAACGUUCUCAACUAUGACACGCAAAACGCGUGCUCCGUUGAAUGGAGUUUAUCAUG

Variants of: B1
Experiment: polymerase ribozyme fitness, log enrichment relative to wild type (log ratio); higher = more active; in vitro selection for triplet polymerase activity
Outline: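 Both subunits of a heterodimeric triplet polymerase ribozyme were given their own mutant library, built by PCR and transcribed. Each library was annealed with a biotinylated primer, the partner subunit and triplets, incubated frozen at −7 °C, and its extended constructs gel-excised, captured on streptavidin beads and amplified by RT-PCR, all in one round done in triplicate. Fitness is the logarithm of genotype enrichment relative to wild-type enrichment, with replicates averaged by inverse-variance weighting. That logarithm is base 2, and Illumina-sequenced genotypes needed ≥10 input reads and ≥1 read per output.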

Compared with C14G C57A C85U C99A C123U, C14G C75U G94C A122U G124A is lower in “polymerase ribozyme fitness (log ratio)” value: -3.49 for the first, -3.86 for the second.

C14G C79A C93G C96A and C14G C87U C149A cannot be ordered by “polymerase ribozyme fitness (log ratio)” value: ≤ -4.2 for the first, ≤ -4.2 for the second.

C14G C129A and C14G G25U C36U G84U A89G A121G cannot be ordered by “polymerase ribozyme fitness (log ratio)” value: ≤ -4.2 for the first, ≤ -4.2 for the second.

C14G G46C A107U and C14G G50C A91U A119G C132U A150G cannot be ordered by “polymerase ribozyme fitness (log ratio)” value: ≤ -4.2 for the first, ≤ -4.2 for the second.

C14G G50C C79A C114A G136A A150G and C14G G50U C76U G94C A113G G117C A142C U148G cannot be ordered by “polymerase ribozyme fitness (log ratio)” value: ≤ -4.2 for the first, ≤ -4.2 for the second.

First: C14G G74C C76G G84A C93G A107G
Second: C14G G83U
The “polymerase ribozyme fitness (log ratio)” value of the first is lower: ≤ -4.2 for the first, -2.05 for the second.

C14G G83U U109C A113U G124A and C14G G88A cannot be ordered by “polymerase ribozyme fitness (log ratio)” value: ≤ -4.2 for the first, ≤ -4.2 for the second.

C14G G88U C93A C116G U144A and C14G U15A C54A A110C cannot be ordered by “polymerase ribozyme fitness (log ratio)” value: ≤ -4.2 for the first, ≤ -4.2 for the second.

C14G U15C A106C G140U and C14G U15C C51U G68A G83A U90G C149G cannot be ordered by “polymerase ribozyme fitness (log ratio)” value: ≤ -4.2 for the first, ≤ -4.2 for the second.

C14G U31A C79U C85G U102G and C14G U31C C38U A47C C85A C96U U148G G152C cannot be ordered by “polymerase ribozyme fitness (log ratio)” value: ≤ -4.2 for the first, ≤ -4.2 for the second.

Going from C14G U33C U56A C85A C99G G117U C123U to C14G U56A C76G G83A G86U G136A, the “polymerase ribozyme fitness (log ratio)” value falls from -3.91 to ≤ -4.2.

Compared with C14G U82C, C14G U148G is lower in “polymerase ribozyme fitness (log ratio)” value: -3.65 for the first, ≤ -4.2 for the second.

C14U A16G A24U A28C G59U C85U C93G C116A and C14U A17C C35G G141C U151A cannot be ordered by “polymerase ribozyme fitness (log ratio)” value: ≤ -4.2 for the first, ≤ -4.2 for the second.

C14U A17G C54G U56G A66U C95G A120G and C14U A17G G70C G80A A137U cannot be ordered by “polymerase ribozyme fitness (log ratio)” value: ≤ -4.2 for the first, ≤ -4.2 for the second.

C14U A17G G83A C108U and C14U A17U A28G U44A A73G C95A G100U A106G A115G cannot be ordered by “polymerase ribozyme fitness (log ratio)” value: ≤ -4.2 for the first, ≤ -4.2 for the second.

First: C14U A19C C76U C99U
Second: C14U A20C A49C A52C U77G C96G A142C
The “polymerase ribozyme fitness (log ratio)” value of the first is higher: -3.03 for the first, ≤ -4.2 for the second.

C14U A20C C87G A91C A137C U148C and C14U A20C U33A C93G C103G C118U cannot be ordered by “polymerase ribozyme fitness (log ratio)” value: ≤ -4.2 for the first, ≤ -4.2 for the second.

C14U A20U G58C G70U A97G U151G and C14U A21C C35G G88C A107C G117A G126U cannot be ordered by “polymerase ribozyme fitness (log ratio)” value: ≤ -4.2 for the first, ≤ -4.2 for the second.

C14U A21G G50U G59A A73U C93G G100U A107G U109C A142C A150U and C14U A22C G59C C75U A91U A121U U135C cannot be ordered by “polymerase ribozyme fitness (log ratio)” value: ≤ -4.2 for the first, ≤ -4.2 for the second.

C14U A22G U44A A107C A138G G140U and C14U A22U A24G A97U U130G G136A cannot be ordered by “polymerase ribozyme fitness (log ratio)” value: ≤ -4.2 for the first, ≤ -4.2 for the second.

C14U A23C and C14U A23U C35U A73G C76G A91C C103G A121U cannot be ordered by “polymerase ribozyme fitness (log ratio)” value: ≤ -4.2 for the first, ≤ -4.2 for the second.

C14U A23U U44A G68U A73G U127C A142C and C14U A26G A47U C95U G124U cannot be ordered by “polymerase ribozyme fitness (log ratio)” value: ≤ -4.2 for the first, ≤ -4.2 for the second.

C14U A28G C32G and C14U A28U C51G A97G cannot be ordered by “polymerase ribozyme fitness (log ratio)” value: ≤ -4.2 for the first, ≤ -4.2 for the second.

C14U A29C C35U C51U U53G A122G and C14U A30G A41U C69A C79A U82G G83C A106G A110G cannot be ordered by “polymerase ribozyme fitness (log ratio)” value: ≤ -4.2 for the first, ≤ -4.2 for the second.

C14U A37C C69A G88A U90A and C14U A39C U45G C69U G70A C85A G100A cannot be ordered by “polymerase ribozyme fitness (log ratio)” value: ≤ -4.2 for the first, ≤ -4.2 for the second.

C14U A39G U53A C57U C108A and C14U A39U G46A C85A C96U A119C cannot be ordered by “polymerase ribozyme fitness (log ratio)” value: ≤ -4.2 for the first, ≤ -4.2 for the second.

C14U A40C G65A G92C C105U and C14U A40G C87G A91G C123U cannot be ordered by “polymerase ribozyme fitness (log ratio)” value: ≤ -4.2 for the first, ≤ -4.2 for the second.

C14U A47C G50A G70A U77C C85A C125G C132A A142U and C14U A47G U90G C95G cannot be ordered by “polymerase ribozyme fitness (log ratio)” value: ≤ -4.2 for the first, ≤ -4.2 for the second.

C14U A49C and C14U A52G U55A G88C A137G G143A cannot be ordered by “polymerase ribozyme fitness (log ratio)” value: ≤ -4.2 for the first, ≤ -4.2 for the second.

C14U A73G C85U G86C G94U and C14U A73U U78G C87G A122U C123U cannot be ordered by “polymerase ribozyme fitness (log ratio)” value: ≤ -4.2 for the first, ≤ -4.2 for the second.

C14U A91U G92C C114A G141A and C14U C18U A49G G59C G80C C85U cannot be ordered by “polymerase ribozyme fitness (log ratio)” value: ≤ -4.2 for the first, ≤ -4.2 for the second.

C14U C27A A40G C51A C57A G94C G100A C118A G126A and C14U C27G A29U C54U C75U C95U A107G cannot be ordered by “polymerase ribozyme fitness (log ratio)” value: ≤ -4.2 for the first, ≤ -4.2 for the second.

C14U C27G G94C G133U A150G and C14U C32G C54G A113C C123U G128U U135A U144A cannot be ordered by “polymerase ribozyme fitness (log ratio)” value: ≤ -4.2 for the first, ≤ -4.2 for the second.

C14U C32U C85G and C14U C35A A40G G84A cannot be ordered by “polymerase ribozyme fitness (log ratio)” value: ≤ -4.2 for the first, ≤ -4.2 for the second.

C14U C35U A60G C95U A115U U144G and C14U C36A A47C U55A C76G G86C cannot be ordered by “polymerase ribozyme fitness (log ratio)” value: ≤ -4.2 for the first, ≤ -4.2 for the second.

C14U C38A A52C U55A A73C G81C C93A A97U C108G U145A and C14U C38U G46C C54U U102G U109G U130A cannot be ordered by “polymerase ribozyme fitness (log ratio)” value: ≤ -4.2 for the first, ≤ -4.2 for the second.

C14U C43U A97U C131G and C14U C43U G84U cannot be ordered by “polymerase ribozyme fitness (log ratio)” value: ≤ -4.2 for the first, ≤ -4.2 for the second.

Going from C14U C57G C85U to C14U C63U C85A A115G, the “polymerase ribozyme fitness (log ratio)” value rises from ≤ -4.2 to -3.56.

C14U C72A C85G G133U and C14U C85A G140A cannot be ordered by “polymerase ribozyme fitness (log ratio)” value: ≤ -4.2 for the first, ≤ -4.2 for the second.

Going from C14U C87U U102C to C14U C103G C149A, the “polymerase ribozyme fitness (log ratio)” value falls from -4.18 to ≤ -4.2.

Going from C14U C105G to C14U C114A C149G, the “polymerase ribozyme fitness (log ratio)” value falls from -3.25 to ≤ -4.2.

For C14U G34U A52U G81C C93A, the “polymerase ribozyme fitness (log ratio)” value was ≤ -4.2.
